The other results are listed elsewhere or left out. For part of these data: At the low end of the ranking the order means little. For part of these data: The protein was read in a cell extract, so binding may be indirect.
Experiments:
Settings in all cases: 20 mM HEPES pH 7.9, 100 mM NaCl, 1 mM DTT, 0.2 mg/mL BSA, 0.02% Triton X-100, 2% milk, 0.4 mg/mL salmon testes DNA; 1 h; temperature not stated; high values mean tight binding; double strand, one strand shown; sequences stand for … in GCCTAGCAC…GTGCTAGGTCTTGATTCGCTTGACGCTGCTG
PU.1 (IVT) = PU.1 (IVT) (UniProt P17947); assay: protein-binding microarray (PBM)
[1] = molecular target: PU.1 (endogenous, THP-1 nuclear extract) (UniProt P17947); assay: nuclear extract protein-binding microarray (nextPBM)
[2] = molecular target: T1, FLI1 (endogenous, THP-1 nuclear extract) (UniProt Q01543); assay: as above
T1 sequence: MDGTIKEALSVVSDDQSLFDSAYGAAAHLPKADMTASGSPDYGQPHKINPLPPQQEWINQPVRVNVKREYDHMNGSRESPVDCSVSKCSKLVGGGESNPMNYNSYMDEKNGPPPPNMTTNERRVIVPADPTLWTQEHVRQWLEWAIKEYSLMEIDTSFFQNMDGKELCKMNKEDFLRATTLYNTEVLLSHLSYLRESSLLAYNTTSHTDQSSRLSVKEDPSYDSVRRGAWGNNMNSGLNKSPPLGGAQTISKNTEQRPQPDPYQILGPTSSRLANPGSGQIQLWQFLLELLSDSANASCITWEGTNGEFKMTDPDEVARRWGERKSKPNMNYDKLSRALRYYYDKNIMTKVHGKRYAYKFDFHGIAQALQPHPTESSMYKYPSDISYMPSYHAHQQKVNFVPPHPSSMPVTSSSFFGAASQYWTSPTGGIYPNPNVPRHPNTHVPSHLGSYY

Sequence	binding signal (PU.1 (IVT))	binding signal [1]	binding signal [2]
TGACAGAGGAAGTGGCAGCC	3.23 z-score	3.21 z-score	2.35 z-score
AAAAAAGGGAAGTGACATAC	7.76 z-score	7.33 z-score	3.36 z-score
AGAATGAGGAACTAGATGAA	6.45 z-score	6.53 z-score	2.31 z-score
TGAAAGAGGAAGTGCAACTA	7.43 z-score	7.1 z-score	4.24 z-score
CAAATGGGGAAGTGAATTTT	7.5 z-score	7.14 z-score	3.76 z-score
TGATAGAGGAAGTAGTAGCT	5.87 z-score	6.24 z-score	2.72 z-score
AGAAGGGGGAAGTGCTACAC	4.97 z-score	5.36 z-score	2.11 z-score
TGTAGGGGGAAGTGTAGTTT	3.74 z-score	3.46 z-score	1.79 z-score
AAAAAGGGGAAGTGCTTTCT	8.76 z-score	7.48 z-score	3.89 z-score
GAAAACAGAAAGTCCCATAG	-0.173 z-score	-0.393 z-score	0.33 z-score
ACAAAGAGGAACTGTGCCCC	4.4 z-score	4.81 z-score	1.55 z-score
ACAAAAAGGAACCGTGCCCC	0.641 z-score	0.938 z-score	0.7 z-score
GGAAAGAGGAACTGGAATTG	6.28 z-score	6.85 z-score	2.28 z-score
CAAAGGAGGAACTGATGCGG	3.85 z-score	3.83 z-score	1.51 z-score
AAAAGAGGGAAGTGAAAATT	5.83 z-score	6.31 z-score	2.46 z-score
AGAGAGGGGAAGTAAATTCT	5.06 z-score	4.47 z-score	1.97 z-score
GGCATGAGGAAGTGGTTCTG	5.67 z-score	6.07 z-score	2.8 z-score
TCAAGAAGGAAGTGGTCACG	2.99 z-score	3.04 z-score	1.94 z-score
AATAAAAGGAAGTGAACCAA	4.04 z-score	4.06 z-score	2.42 z-score
GAAAGGAGGAAGTACTGTGG	6.78 z-score	6.71 z-score	3.42 z-score
CCAAAGAGGAAGTGTGGGCA	5.78 z-score	6.28 z-score	3 z-score
GCCAGGAGGAAGTGGAAATG	4.22 z-score	4.53 z-score	3.17 z-score
CAAATGAGGAACTGATTCGG	6.43 z-score	6.6 z-score	2.03 z-score
ACACAAAGGAACTGTGCCCC	0.485 z-score	0.553 z-score	0.85 z-score

Sequence	binding signal (PU.1 (IVT))	binding signal [1]	binding signal [2]
GAGATGAGGAAGTGCTACTA	5.67 z-score	6.3 z-score	2.39 z-score
AAAAAGAGGAAATGAATTGG	6.98 z-score	6.62 z-score	3.49 z-score
TGAAAGAGGACGTGCAACCA	0.427 z-score	0.497 z-score	0.528 z-score
CAAATGAGGAACTGAGGCGG	5.34 z-score	6.33 z-score	1.59 z-score
GAAAAGAGGAACTGGGTAGT	7 z-score	6.95 z-score	3.07 z-score
GAAAAGGAGAAGTGGTCCCA	5.14 z-score	5.96 z-score	2.15 z-score
CCAAAGGGGAAGTGCTAAAC	5.4 z-score	6.34 z-score	2.51 z-score
TATTTAAGGAAGTGGCAGTC	5.3 z-score	5.31 z-score	2.47 z-score
TTACTGAGGAAGTGGAAACC	3.27 z-score	3.01 z-score	2.29 z-score
AGAATAAGGAAGTGGCTAAT	5.85 z-score	6.23 z-score	2.39 z-score
AAGAAGAGGAACTGGAGTAA	4.07 z-score	4.4 z-score	1.5 z-score
ATAAAGAGGAACTGGCAGAT	5.09 z-score	5.76 z-score	1.71 z-score
TAAATGAGGAACTGAATTTT	6.92 z-score	6.62 z-score	2.59 z-score
CAAAAGGGGAACTGCTTGGG	5.91 z-score	6.32 z-score	2.18 z-score
TCCAGGAGGAAGTGAGGAAT	3.94 z-score	4.19 z-score	2.72 z-score
GAAAACAGGAAGTCCCTTAG	7.61 z-score	6.97 z-score	4.83 z-score
AAAAAAAGGAACGGGCTAGA	1.48 z-score	1.25 z-score	0.244 z-score
AAAAACAGGAAGTGTGAATT	8.16 z-score	7.37 z-score	5.19 z-score
GAAAGCAGGAAGTGTGTTAT	4.63 z-score	4.53 z-score	4.08 z-score
GAAAAGAGGAAGTCAGACTA	8.15 z-score	7.56 z-score	3.79 z-score
GAAAAGGGGAAGTCAGGCTT	7.71 z-score	7.4 z-score	3.37 z-score
ACAAAAAGGAACTGTGCTCC	2.3 z-score	1.75 z-score	0.84 z-score
GAATTGAGGAAGTGGGGGTG	6.32 z-score	6.89 z-score	2.77 z-score
GAAATGGGGAAGTCAGGACA	6.55 z-score	6.65 z-score	2.6 z-score

Sequence	binding signal (PU.1 (IVT))	binding signal [1]	binding signal [2]
GATAAGAGGAAGTGCTCTGT	6.52 z-score	6.71 z-score	3.33 z-score
AATAAGAGGAAGTGGCAAGA	6.57 z-score	6.82 z-score	3.51 z-score
GAAAACGGGAAGTGAAGCAG	7.56 z-score	7.13 z-score	3.17 z-score
TTAAAAGGGAAGTGACTCTT	5.41 z-score	6.13 z-score	2.56 z-score
GGGATGGGGAAGTCCTCAAG	4.1 z-score	4.01 z-score	1.37 z-score
GGAGGGAGGAAGTGAGACAG	3.27 z-score	3.42 z-score	2.64 z-score
AAAAATAGGAACTGGCTAGA	3.72 z-score	3.19 z-score	0.938 z-score
GTAAAGAGGAAGTGAAAATG	7.01 z-score	7.09 z-score	3.72 z-score
TAGATGAGGAAGTGAGGCTG	5.41 z-score	5.95 z-score	2.4 z-score
CAGGAGAGGAAGTGGGATAG	4.01 z-score	4.41 z-score	2.94 z-score
CAAAAAGGGAAGTGGAGGCT	6.26 z-score	6.46 z-score	2.67 z-score
GGGAAGAGGAAGTGCTTAGC	6.06 z-score	6.64 z-score	3.48 z-score
TGGAAGAGGAACTGCTCTTC	4 z-score	4.45 z-score	1.62 z-score
GAAAACAGGAAGTCTCATAG	6.79 z-score	6.82 z-score	4.54 z-score
GTAGAAAGGAAGTGAAGGAT	2.31 z-score	2.05 z-score	2.64 z-score
GGAAAGAGGAAGTGAGGTGG	7.61 z-score	7.13 z-score	4.22 z-score
AGAAAAAGGAAGTGAGCAGC	5.58 z-score	6.03 z-score	2.81 z-score
GAAAACAGGAAGTGATTAGA	7.95 z-score	7.19 z-score	5.42 z-score
TATTTGGGGAAGTGTGTGAG	4.71 z-score	4.82 z-score	1.92 z-score
TAAATGGGGAAGTGGGGCGG	6.03 z-score	6.71 z-score	3.11 z-score
ATTAAACGGAAGTGAAAGGT	3.92 z-score	4.05 z-score	4.54 z-score
ACAAAAAGGAATTGTGCCCC	0.17 z-score	0.104 z-score	0.368 z-score
GAACAAAGGAAGTGTTTCTT	1.78 z-score	1.56 z-score	2.33 z-score
AGGAGAGGGAAGTGGGAGGA	2.54 z-score	2.72 z-score	1.47 z-score

Sequence	binding signal (PU.1 (IVT))	binding signal [1]	binding signal [2]
GGAATAGGGAAGTGGCCTGT	6.32 z-score	6.74 z-score	2.51 z-score
GGAATGAGGAACTGGCTGGC	5.27 z-score	5.96 z-score	1.73 z-score
AGAGGAAGGAAGTGAGAGTA	2.41 z-score	2.56 z-score	2.55 z-score
CGAAAGGGGAAGTGGTAAAC	7.44 z-score	7.03 z-score	3.42 z-score
AGCAAGAGGAAGTGAGATGA	4.9 z-score	5.34 z-score	3.02 z-score
AGGAGGAGGAAGTGGATGGG	4.63 z-score	4.68 z-score	2.92 z-score
AGAATGGGGAAGTGGAAAGG	6.16 z-score	6.41 z-score	2.37 z-score
CCTGAGAGGAAGTTGGCTTA	4.53 z-score	4.74 z-score	2.89 z-score
AATTTGAGGAACTACTGTGA	5.62 z-score	5.69 z-score	1.53 z-score
AAAGTAAGGAAGTGCTCAAG	2.76 z-score	2.88 z-score	1.46 z-score
CGAAAGGGGAAGTGCTAAGC	6.82 z-score	7.02 z-score	3.01 z-score
GAAGAAGGGAAGTGGAAGAA	3.41 z-score	2.97 z-score	2.03 z-score
CAAAAAGGGACGTGGATGCT	0.256 z-score	0.379 z-score	0.474 z-score
ACTGGGAGGAAGTCACAGGG	2.56 z-score	2.82 z-score	2.08 z-score
AATAAGAGGAAATGAATGCA	3.07 z-score	3.14 z-score	2.23 z-score
AAAAGAAGGAAGTCCCCTGC	4.71 z-score	5.56 z-score	1.89 z-score
AAATAAAGGAAGTGGTAAGG	4.81 z-score	4.98 z-score	2.61 z-score
CAAAAAGGGAAGTGGAAGCT	6.2 z-score	6.58 z-score	3.11 z-score
TAAAAGAGGAACAGCAAATC	3.9 z-score	4.73 z-score	1.16 z-score
TAAAAAGGGAAGTGTATATA	6.46 z-score	6.67 z-score	2.58 z-score
AAAAAGAGGAAATGAAAAGA	6.67 z-score	6.73 z-score	3.51 z-score
CTGTAGGGGAAGTGCCTTGT	3.75 z-score	3.62 z-score	1.92 z-score
GATAAAAGGAAGTCCTCTGT	3.29 z-score	3.11 z-score	1.92 z-score
GAAAAGAGGAAGTCAAACGA	8.02 z-score	7.32 z-score	4.15 z-score

Sequence	binding signal (PU.1 (IVT))	binding signal [1]	binding signal [2]
TGAAAGTGGAAGTGAATGTT	3.68 z-score	2.84 z-score	1.66 z-score
GAAGAGAGGAAGTCAAATTG	4.29 z-score	4.11 z-score	2.61 z-score
CAAAAAGGGAAGTGAGGTAC	6.58 z-score	6.73 z-score	2.62 z-score
AAAAACAGGAAGTCCATTTC	7.59 z-score	7.24 z-score	4.75 z-score
TTTTTAGAGAAGTACTGTGA	3.11 z-score	3.2 z-score	-0.0214 z-score
AAAATGAGGAAGTCAAAACA	7.95 z-score	7.56 z-score	3.36 z-score
AGAAAGAGGAAATGGTACCA	4.83 z-score	5.31 z-score	3.05 z-score
GCAAAGAGGAAGTCACGGAA	6.38 z-score	6.33 z-score	4.3 z-score
AGGTAGAGGAAGTAGACTAG	4.13 z-score	4.09 z-score	2.18 z-score
TGAAAGGGGAAGTGACTTCC	7.7 z-score	7.17 z-score	4.5 z-score
TGCATGAGGAAGTACTGTGA	5.15 z-score	5.82 z-score	2.27 z-score
AAGAAGAGGAACTCTTAGAG	3.83 z-score	3.99 z-score	1.53 z-score
CAAATGAGGAACTCATGCGG	5.49 z-score	6.26 z-score	1.56 z-score
CAGATAGGGAAGTGACACAC	4.78 z-score	5.26 z-score	1.73 z-score
TGAAAGAGGAAGTGAGGAAG	7.36 z-score	7.1 z-score	4.03 z-score
AAAAAAAGGAAGTGGCTAGA	6.45 z-score	6.57 z-score	3.06 z-score
TGAAAGGGGAAGTGCCACGT	6.96 z-score	7.01 z-score	3.4 z-score
GGTGGGAGGAAGTGATCGGT	3.72 z-score	3.62 z-score	2.79 z-score
AATATGAGGAACTGCCAGCG	4.27 z-score	4.45 z-score	1.31 z-score
AAAATGAGGAAGTGAACATC	8.21 z-score	7.08 z-score	4.11 z-score
GAGAAGGGGAAGTCCCAGAA	4.88 z-score	5.45 z-score	2.16 z-score
AAAAAAACGAACTGGCTAGA	-0.129 z-score	0.0306 z-score	-0.521 z-score
TTTGGAAGGAACTACTGTGA	1.32 z-score	1.39 z-score	0.204 z-score
AAATTAAGGAAGTGCCTCTT	6.87 z-score	6.59 z-score	2.79 z-score
